From paper PMC2361802
Results are given in words; binding and its absence hold for the method and conditions named. In cells and extracts the contact can be indirect. Some results given as binding are weak or reduced against the parent protein; the word gives no strength. Each block holds one substance with its values, some of them ahead of it.

The chains behind the UniProt entries cited, without tags or fusion partners. Where a name states a change or a piece, a line headed by the entry shows the natural chain unless it says otherwise. Residues count along the entry.
UniProt P03372: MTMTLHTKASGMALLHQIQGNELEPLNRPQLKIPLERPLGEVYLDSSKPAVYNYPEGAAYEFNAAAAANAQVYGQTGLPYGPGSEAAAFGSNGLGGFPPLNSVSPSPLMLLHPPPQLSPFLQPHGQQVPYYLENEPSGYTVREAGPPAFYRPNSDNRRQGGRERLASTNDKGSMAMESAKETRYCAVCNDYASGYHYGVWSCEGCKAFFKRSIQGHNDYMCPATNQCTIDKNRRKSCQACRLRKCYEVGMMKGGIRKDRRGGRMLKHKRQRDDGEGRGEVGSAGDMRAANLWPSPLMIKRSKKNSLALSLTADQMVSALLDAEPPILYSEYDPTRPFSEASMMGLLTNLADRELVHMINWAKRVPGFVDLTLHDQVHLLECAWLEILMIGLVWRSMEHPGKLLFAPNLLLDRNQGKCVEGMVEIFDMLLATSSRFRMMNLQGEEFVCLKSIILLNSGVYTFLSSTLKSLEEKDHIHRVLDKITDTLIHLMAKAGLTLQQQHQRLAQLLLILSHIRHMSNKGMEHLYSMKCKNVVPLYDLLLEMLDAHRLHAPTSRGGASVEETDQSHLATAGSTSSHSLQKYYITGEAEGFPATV
GST-ER α AF-2 (263-595): residues 263-595 of P03372
UniProt Q92731: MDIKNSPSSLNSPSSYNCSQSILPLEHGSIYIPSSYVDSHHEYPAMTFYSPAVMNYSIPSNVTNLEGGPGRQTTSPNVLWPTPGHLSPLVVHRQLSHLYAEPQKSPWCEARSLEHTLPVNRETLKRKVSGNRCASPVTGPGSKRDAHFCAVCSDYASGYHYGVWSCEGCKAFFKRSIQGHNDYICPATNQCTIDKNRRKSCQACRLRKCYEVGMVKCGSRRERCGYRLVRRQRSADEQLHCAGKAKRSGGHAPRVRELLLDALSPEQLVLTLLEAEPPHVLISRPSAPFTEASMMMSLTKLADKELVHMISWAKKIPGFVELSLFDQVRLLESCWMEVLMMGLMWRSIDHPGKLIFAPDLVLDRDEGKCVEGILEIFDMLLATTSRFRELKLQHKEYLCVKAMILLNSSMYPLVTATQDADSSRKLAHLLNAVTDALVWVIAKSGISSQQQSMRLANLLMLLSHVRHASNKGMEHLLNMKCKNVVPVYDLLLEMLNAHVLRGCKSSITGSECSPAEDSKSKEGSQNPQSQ
GST-ER β AF-2 (248-530): residues 248-530 of Q92731
UniProt P43246: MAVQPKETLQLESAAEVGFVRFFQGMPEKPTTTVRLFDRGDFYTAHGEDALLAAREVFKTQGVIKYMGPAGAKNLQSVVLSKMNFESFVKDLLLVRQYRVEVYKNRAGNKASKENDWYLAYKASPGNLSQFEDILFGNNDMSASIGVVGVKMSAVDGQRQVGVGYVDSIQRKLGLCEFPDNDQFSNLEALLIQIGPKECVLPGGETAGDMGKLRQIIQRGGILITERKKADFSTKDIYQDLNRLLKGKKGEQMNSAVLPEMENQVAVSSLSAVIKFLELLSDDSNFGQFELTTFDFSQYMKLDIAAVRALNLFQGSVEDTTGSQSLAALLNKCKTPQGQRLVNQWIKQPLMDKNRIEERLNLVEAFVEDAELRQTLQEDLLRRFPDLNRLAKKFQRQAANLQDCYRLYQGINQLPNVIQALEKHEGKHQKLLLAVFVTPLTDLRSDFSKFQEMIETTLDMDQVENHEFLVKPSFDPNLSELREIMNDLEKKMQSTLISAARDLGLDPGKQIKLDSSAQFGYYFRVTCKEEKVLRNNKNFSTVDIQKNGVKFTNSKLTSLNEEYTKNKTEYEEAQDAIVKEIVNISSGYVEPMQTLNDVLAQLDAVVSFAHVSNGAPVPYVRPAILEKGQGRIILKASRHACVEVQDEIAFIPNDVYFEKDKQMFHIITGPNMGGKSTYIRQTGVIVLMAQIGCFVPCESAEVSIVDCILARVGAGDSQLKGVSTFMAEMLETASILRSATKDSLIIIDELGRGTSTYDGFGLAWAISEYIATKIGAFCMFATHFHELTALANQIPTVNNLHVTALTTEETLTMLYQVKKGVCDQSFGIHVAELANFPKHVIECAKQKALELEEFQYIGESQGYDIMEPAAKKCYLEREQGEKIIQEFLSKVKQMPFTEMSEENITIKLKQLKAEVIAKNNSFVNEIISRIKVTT
UniProt Q15648: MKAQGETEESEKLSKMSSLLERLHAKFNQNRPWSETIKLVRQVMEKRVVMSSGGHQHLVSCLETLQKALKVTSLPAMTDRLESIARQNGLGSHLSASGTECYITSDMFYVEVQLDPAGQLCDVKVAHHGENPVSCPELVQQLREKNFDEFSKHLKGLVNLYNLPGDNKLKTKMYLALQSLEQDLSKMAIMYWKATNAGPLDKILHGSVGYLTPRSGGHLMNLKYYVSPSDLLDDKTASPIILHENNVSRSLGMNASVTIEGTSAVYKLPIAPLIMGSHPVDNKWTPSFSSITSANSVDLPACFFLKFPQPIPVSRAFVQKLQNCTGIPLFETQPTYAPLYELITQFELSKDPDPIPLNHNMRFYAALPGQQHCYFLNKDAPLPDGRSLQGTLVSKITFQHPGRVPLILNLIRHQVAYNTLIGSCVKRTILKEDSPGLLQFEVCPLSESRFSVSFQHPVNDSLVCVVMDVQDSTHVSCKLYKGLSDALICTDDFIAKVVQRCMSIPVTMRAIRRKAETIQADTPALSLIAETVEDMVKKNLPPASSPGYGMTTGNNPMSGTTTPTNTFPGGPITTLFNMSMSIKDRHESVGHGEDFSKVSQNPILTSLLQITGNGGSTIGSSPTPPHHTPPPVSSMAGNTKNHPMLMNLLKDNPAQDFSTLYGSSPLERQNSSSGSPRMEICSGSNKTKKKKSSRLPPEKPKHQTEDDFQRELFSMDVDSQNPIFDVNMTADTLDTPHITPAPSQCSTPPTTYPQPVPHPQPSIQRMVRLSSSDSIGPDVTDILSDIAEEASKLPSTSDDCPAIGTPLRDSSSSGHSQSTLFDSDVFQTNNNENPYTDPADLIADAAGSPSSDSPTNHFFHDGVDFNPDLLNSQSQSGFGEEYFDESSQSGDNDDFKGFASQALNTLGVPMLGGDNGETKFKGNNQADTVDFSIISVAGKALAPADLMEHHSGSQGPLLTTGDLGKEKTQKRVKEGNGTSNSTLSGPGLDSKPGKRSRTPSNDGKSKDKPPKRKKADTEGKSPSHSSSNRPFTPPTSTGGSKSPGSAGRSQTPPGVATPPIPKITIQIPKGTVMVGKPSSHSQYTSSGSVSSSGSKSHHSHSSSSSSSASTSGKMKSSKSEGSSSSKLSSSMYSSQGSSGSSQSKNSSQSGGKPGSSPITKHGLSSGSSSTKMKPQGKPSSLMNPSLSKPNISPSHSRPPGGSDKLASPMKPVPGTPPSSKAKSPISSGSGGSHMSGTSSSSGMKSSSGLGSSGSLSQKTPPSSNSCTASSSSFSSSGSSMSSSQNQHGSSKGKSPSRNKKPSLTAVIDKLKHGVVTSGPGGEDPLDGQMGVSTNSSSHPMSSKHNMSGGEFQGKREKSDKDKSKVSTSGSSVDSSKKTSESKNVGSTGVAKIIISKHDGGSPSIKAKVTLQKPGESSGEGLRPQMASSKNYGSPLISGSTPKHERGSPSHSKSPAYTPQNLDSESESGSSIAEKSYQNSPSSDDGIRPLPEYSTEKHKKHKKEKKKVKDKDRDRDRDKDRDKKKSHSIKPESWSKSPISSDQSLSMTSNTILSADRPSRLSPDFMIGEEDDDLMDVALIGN

Legend:
[1] = biological target: GST-ER α AF-2 (263-595) (human) (UniProt P03372); test: pull-down; GST fusion on glutathione-sepharose 4B beads, preincubated 30 min with 17-β estradiol (10^-6 M) in NET buffer (20 mM Tris-HCl pH 7.5, 200 mM NaCl, 1 mM EDTA); 35S-labelled in vitro translated protein, 1 h, 4°C; autoradiography; only the target purified
[2] = biological target: GST-ER α AF-2 (263-595) (human) (UniProt P03372); test: pull-down; GST fusion on glutathione-sepharose 4B beads, preincubated 30 min without 17-β estradiol in NET buffer (20 mM Tris-HCl pH 7.5, 200 mM NaCl, 1 mM EDTA); 35S-labelled in vitro translated protein, 1 h, 4°C; autoradiography; only the target purified
[3] = biological target: GST-ER β AF-2 (248-530) (human) (UniProt Q92731); test: as above
[4] = biological target: GST-ER β AF-2 (248-530) (human) (UniProt Q92731); test: pull-down; GST fusion on glutathione-sepharose 4B beads, preincubated 30 min with 17-β estradiol (10^-6 M) in NET buffer (20 mM Tris-HCl pH 7.5, 200 mM NaCl, 1 mM EDTA); 35S-labelled in vitro translated protein, 1 h, 4°C; autoradiography; only the target purified
[5] = biological target: human MutS homologue 2 (hMSH2), endogenous (human (endogenous in Ishikawa and MDA-MB-231)) (UniProt P43246); test: co-IP; reciprocal IP of endogenous proteins with the antibody raised against hMSH2, immunoblot for ER α and ER β

- binding [1]: no binding
Substance: FLAG-tagged hMSH2 fragment F1 (1-178) (from UniProt P43246 1-178) (domain or fragment)

- binding [1]: no binding
Substance: FLAG-tagged hMSH2 fragment F5 (793-934) (from UniProt P43246 793-934) (domain or fragment)

- binding [5]: binds
Substance: oestrogen receptor α (ER α), endogenous (from UniProt P03372 1-595)

The remaining lines, values behind:

Substance: in vitro translated TRAP220 (from UniProt Q15648 1-1581)
- binding [1]: binds

Substance: FLAG-tagged hMSH2 fragment F2 (179-377) (from UniProt P43246 179-377) (domain or fragment)
- binding [1]: no binding

Substance: FLAG-tagged hMSH2 fragment F3 (378-625) (from UniProt P43246 378-625) (domain or fragment)
- binding [2]: no binding (condition: without 17-β estradiol)
- binding [3]: binds
- binding [1]: binds
- binding [4]: binds

Substance: FLAG-tagged hMSH2 fragment F4 (609-888) (from UniProt P43246 609-888) (domain or fragment)
- binding [3]: binds
- binding [1]: no binding
- binding [4]: binds

Substance: oestrogen receptor β (ER β), endogenous (from UniProt Q92731 1-530)
- binding [5]: binds
